Experimental data reported in PubChem BioAssay AID624417 (National Center for Advancing Translational Sciences (NCATS), 2012).
“And” between values parts separate entries of the source, which are not always exact repeats. Identical values can stand only once. Screen size: about 410,000 compounds; about 6,400 (1.6%) were called active. This list was built around the results that the source calls inconclusive (neither active nor inactive); the mix of calls is not that of the screen. The call rests on the fitted dose curve; in most records, active means well fitted inhibition curve with a large enough effect; inconclusive means small, poorly fitted or top-dose-only effect; inactive means no such curve, though single readings can be large or run the other way. A potency beside an inconclusive call is a rough fit, not a confirmed value.

These molecules were tested against Glucagon-like peptide 1 receptor (Homo sapiens) (UniProt P43220) (assay: qHTS of GLP-1 Receptor Inverse Agonists (Inhibition Mode)). Settings: HEK293 GLP-1R CRE-luciferase, luminescence, 24 h, GLP-1R form is constitutively active; activity change, negative = inhibition: at 38.3 µM (top of the series) unless noted.
Sequence of UniProt P43220 (P43220 whole entry, looked up): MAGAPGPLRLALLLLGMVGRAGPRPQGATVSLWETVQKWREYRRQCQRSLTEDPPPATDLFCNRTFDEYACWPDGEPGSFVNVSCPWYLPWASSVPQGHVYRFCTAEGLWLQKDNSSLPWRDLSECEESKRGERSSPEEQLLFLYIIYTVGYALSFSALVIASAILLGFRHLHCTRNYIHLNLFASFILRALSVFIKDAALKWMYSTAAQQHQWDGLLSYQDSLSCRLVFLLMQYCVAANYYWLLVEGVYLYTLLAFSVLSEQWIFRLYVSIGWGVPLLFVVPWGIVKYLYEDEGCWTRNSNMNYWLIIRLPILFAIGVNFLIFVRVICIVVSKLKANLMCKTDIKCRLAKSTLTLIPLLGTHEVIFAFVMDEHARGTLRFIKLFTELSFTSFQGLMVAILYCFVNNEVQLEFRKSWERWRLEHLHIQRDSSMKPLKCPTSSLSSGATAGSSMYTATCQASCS
How it was run: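 Constitutively active GLP-1R drives a cAMP-responsive luciferase in stably transfected HEK293 cells; test compounds are added after overnight (12 h) attachment and left 24 hr, and signal loss in luminescence marks inhibition.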
Further: nearly all actives have a fitted effect of over 55% in size.
On the % scale 0 is the no-effect control and ±100 the full control effect; potency means the concentration at half of the fitted maximal effect; tags describe the fitted curve by direction and shape.

Potency, inconclusive:
Cc1nn(Cc2ccc(Cl)cc2Cl)c(C)c1NC(=O)CCl 28.2 µM [inhibitor, single point]
COc1ccc(C=O)cc1CN1CCCN(Cc2ccccc2F)S1(=O)=O 12.6 µM [inhibitor, single point]
COc1ccc(C(=O)NC(=S)Nc2ccccc2N2CCOCC2)cc1Br 11.2 µM [inhibitor, partial curve, poor fit]
O=C(NCC1COc2ccccc2O1)C1(c2ccccc2)CCCC1 (stereo unspecified) 10 µM [inhibitor, partial curve, poor fit]
O=C(Nc1ccccc1N1CCN(C(=O)c2ccccc2)CC1)c1cccc(Cl)c1 11.2 µM [inhibitor, single point]
c1ccc2c(c1)CCN(C1=Nc3cccc4cccc1c34)C2 28.2 µM [inhibitor, single point]
CCCSC1=C(C#N)C(c2ccc(OC)cc2)C2=C(CC(C)(C)CC2=O)N1 (stereo unspecified) 10 µM [inhibitor, partial curve]
O=C(Nc1cccc(Cl)c1)Nc1nc(-c2ccc(Cl)cc2)cs1 8.91 µM [inhibitor, partial curve, poor fit]
CCCCCCN1C[C@H](O)[C@@H](n2cc(C3CC3)nn2)C[C@@H]1c1ccc(C)cc1 10 µM [inhibitor, partial curve, poor fit]
COC(=O)c1sc(N)c(C(=O)OC)c1COC(=O)[C@@H](NS(=O)(=O)c1cccc(Cl)c1)C(C)C 28.2 µM [inhibitor, single point]
Cc1ccc(NC(=O)C2(c3cccs3)CCOCC2)cc1Cl 12.6 µM [inhibitor, single point]
Cn1c(=O)c2c(nc(NCc3cccnc3)n2Cc2cccc(C(F)(F)F)c2)n(C)c1=O 5.01 µM [inhibitor, full curve]
CCOc1cc(/C=C(\C#N)C(=O)Nc2cccc(C(=O)O)c2)cc(Br)c1OC(=O)c1ccc(OC)cc1 28.2 µM [inhibitor, single point]
CCN(CC)S(=O)(=O)c1ccc(N2CCCCC2)c(NC(=O)/C(C#N)=C/c2ccc(OC)cc2)c1 10 µM [inhibitor, partial curve, poor fit]
CCc1cccc(NS(=O)(=O)c2c(C)nc3scc(C)n3c2=O)c1 28.2 µM [inhibitor, single point]
COc1ccccc1/C=C1\SC(=S)N(NS(=O)(=O)c2ccc(C)cc2)C1=O 11.2 µM [inhibitor, partial curve, poor fit]
CCC(CC)CN1C(N(C)C)=NC[C@@H]1CC(C)C 28.2 µM [inhibitor, single point]
Cc1ccc(OCC(=O)Nc2ccccc2-c2ccccc2)cc1 14.1 µM [inhibitor, single point]
Cc1ccc2nc(N3CCN(C)CC3)c(C#N)cc2c1 31.6 µM [inhibitor, single point]
CCOC(=O)COc1nc2c(c(-c3ccco3)c1C#N)CCc1ccccc1-2 11.2 µM [inhibitor, single point]
CS(=O)(=O)N1CCc2cc(C(=O)N3CCN(c4cccc(Cl)c4)CC3)ccc21 28.2 µM [inhibitor, single point]
Cc1ccc(S(=O)(=O)NCc2ccc(C(=O)N3CCc4ccccc4C3)cc2)cc1 11.2 µM [inhibitor, partial curve, poor fit]
COc1ccc(C2C(C(=O)Nc3ccccc3)=C(C)Nc3c(C(=O)Nc4ccccc4)cnn32)cc1 (stereo unspecified) 11.2 µM [inhibitor, single point]
O=C(NCc1ccccc1)C1=C[C@H](C2CC2)C[C@H](OCc2ccc(CO)cc2)O1 28.2 µM [inhibitor, single point]
Cc1onc(-c2ccccc2)c1C(=O)OCC(=O)NC(C)c1ccc(Cl)cc1 (stereo unspecified) 28.2 µM [inhibitor, single point]
CCCc1nc2ccccc2n1C(=S)SC 11.2 µM [inhibitor, partial curve, poor fit]
CC(=O)Nc1ccc(S(=O)(=O)N2CCCC3CCCCC32)cc1 (stereo unspecified) 11.2 µM [inhibitor, single point]
CCCCNc1c(-c2ccc(OC)c(SC(C)CC)c2)nc2cnccn12 (stereo unspecified) 12.6 µM [inhibitor, single point]
CCCCC1(O)CC(C(F)(F)F)=NN1C(=O)COc1ccccc1 (stereo unspecified) 10 µM [inhibitor, partial curve, poor fit]
CCN(CC)c1ccc2nc3ccccc3[n+](CC)c2c1 15.8 µM [inhibitor, partial curve, poor fit]
Cc1nc(Nc2ccc(O)cc2)c2c3c(sc2n1)CCCC3 31.6 µM [inhibitor, single point]
Oc1ccc(C[C@@H]2CNCCN2CCc2cccc3ccccc23)cc1 12.6 µM [inhibitor, partial curve, poor fit]
CC[C@]12c3[nH]c4cc(-c5ccco5)ccc4c3CCN1C(=O)[C@@H](CC(=O)NC/C=C(\C)CCC=C(C)C)C[C@@H]2C(=O)N1CCN(C(=O)C2CC2)CC1 10 µM [inhibitor, partial curve, poor fit]
CCCn1nc2cc(C(=O)NCCCCc3ccccc3)ccc2c1OCC 12.6 µM [inhibitor, partial curve, poor fit]
CCN(CC)CCNc1nc2cc(OC)c(OC)cc2c2nc(-c3ccccc3)nn12 2.82 µM [inhibitor, full curve, poor fit]
CCc1ccc(C(=O)c2cn(CC(=O)Nc3ccc(Cl)cc3)c3cc4c(cc3c2=O)OCO4)cc1 12.6 µM [inhibitor, single point]
CCOC(=O)C1=C(C)NC(C)=C(C(=O)OCC)C1C(=O)OCC(=O)NCCc1ccc(S(N)(=O)=O)cc1 7.94 µM [inhibitor, partial curve, poor fit]
O=C1CC(=Nc2ccc([N+](=O)[O-])cc2)NN1c1c(Cl)cc(Cl)cc1Cl 8.91 µM [inhibitor, partial curve, poor fit]
CC(=O)N1CCCc2cc(S(=O)(=O)N3CCCC(C(=O)N4CCN(c5cccc(Cl)c5)CC4)C3)ccc21 (stereo unspecified) 10 µM [inhibitor, partial curve, poor fit] and 11.2 µM [inhibitor, single point]
CN(C)c1ccc(P(=O)(OCc2ccccc2)C(O)c2ccc(Cl)cc2)cc1 (stereo unspecified) 10 µM [inhibitor, partial curve, poor fit]
O=C1OC(CN(Cc2ccccc2)Cc2ccccc2)CN1N=Cc1ccc([N+](=O)[O-])o1 (stereo unspecified) 8.91 µM [inhibitor, partial curve]
O=C(Cc1coc2ccc3ccccc3c12)NCc1ccccc1 10 µM [inhibitor, single point]
Cc1ccc(NC(=O)C(Cc2c[nH]c3ccccc23)NC(=O)OC(C)(C)C)c(C)c1 (stereo unspecified) 22.4 µM [inhibitor, single point]

Potency, active:
COc1ccc(CC2(CO)CCN(CC3=Cc4cc(Cl)ccc4OC3)CC2)cc1 2.82 µM

Potency, inactive:
CCC1CN(C(=O)Nc2ccccc2F)c2cc(C)ccc2O1 (stereo unspecified)
CC1CCN(CC2CCN(C(=O)NCc3ccccc3)CC2)CC1
C[N+]1(C2CCC3CCC2C3O)CCCC1 (stereo unspecified)
N#Cc1nc(-c2ccco2)oc1N1CCOCC1
O=C(COC(=O)C1=NN(c2ccccc2)C(=O)CC1)NCc1ccccc1Cl
COc1ccc(Br)cc1C1C(C(=O)Nc2ccc(C)cc2C)=C(C)Nc2ncnn21 (stereo unspecified)
COc1cc2c(c3ccccc13)CCCC2=O
Cc1ccc(C)c(CSc2nc(-c3ccccc3F)nc3c2Cc2c(CO)cnc(C)c2O3)c1
Oc1ccc(/C=C/c2cnccn2)cc1
CCn1c(SCC(=O)Nc2cc(C)on2)nc2c(c1=O)SCC2
CCOC(=O)N1CCN(C(=O)CN2C(=O)NC(C)(c3ccc4ccccc4c3)C2=O)CC1 (stereo unspecified)
COc1ccc(CNC(=O)[C@H](Cc2ccccc2)NC(=O)CC[C@H]2O[C@@H](n3ccc(=O)[nH]c3=O)[C@H](O)[C@@H]2O)cc1
COc1cc(CNCCc2ccccc2)ccc1OCC(N)=O
CC(C)OC(=O)c1ccc(NC(=O)c2ccco2)cc1
COc1cccc(CN2CC(C(=O)NC3CCC3)CCC2=O)c1 (stereo unspecified)
COc1ccccc1NC(=O)C(C)OC(=O)CSCC(=O)Nc1ccc(C)cc1C (stereo unspecified)
CCCCC1=CC2=CC(=O)C(C)(OC(=O)c3cccs3)C(=O)C2=CO1 (stereo unspecified)
CC(C)C(=O)Nc1nnc2n1CCS2
O=C(CCN1C(=O)/C(=C\c2ccccc2)SC1=S)N1CCCCC1
Cc1ccc(S(=O)(=O)Nc2nc(CN3CCOCC3)nc3sc(C(=O)O)c(C)c23)cc1
CCOc1cc2sc(N3CCC(C(=O)Nc4ccc(CC)cc4)CC3)nc2cc1Br

Activity change, negative = inhibition, inconclusive:
CCCCNC(=O)N(O)C1N(/N=C/c2ccccc2OC)C(=S)SC1(C)C (stereo unspecified) -45.7% [inhibitor]
